Experimental data taken from article PMC10114980, “Triple targeting of mutant EGFR^L858R/T790M, COX-2, and 15-LOX: design and synthesis of novel quinazolinone tethered phenyl urea derivatives for anti-inflammatory and anticancer evaluation” (Journal of Enzyme Inhibition and Medicinal Chemistry, 2023).

Columns and labels:
[1] = molecular target: T1, double mutant EGFR^L858R/T790M (Homo sapiens, UniProt P00533, L858R/T790M); assay: In vitro EGFR inhibition assay, double mutant; format: biochemical; details: for IC50: double mutant EGFR; for Selectivity (SI): ratio of the IC50 values EGFR^WT/EGFR^L858R/T790M
T1 construct: purchased AssayQuant Technologies, Inc. (Marlboro, MA, USA)

[2] = molecular target: T2, wild-type EGFR (Homo sapiens, UniProt P00533); assay: In vitro EGFR inhibition assay, wild type; format: biochemical; details: read-out: EGFR^WT IC50
T2 construct: purchased AssayQuant Technologies, Inc. (Marlboro, MA, USA)

[3] = system: LPS-induced NO production in RAW 264.7 cells; assay: NO production in LPS-activated RAW 264.7 macrophage cells (DAF-FM diacetate); format: cell-based; details: Mus musculus, RAW264.7; LPS-activated RAW 264.7 cells; mean ± SEM, three replicates
Experimental: (§1) TNF-α and IL-6 production were detected in RAW 264.7 macrophage cell culture supernatants following the induction of inflammation by LPS. Moreover, the probes of oxidative species 2,7-dichlorofluorescein diacetate (DCFH-DA) (Molecular Probes) and NO, 4-amino-5-methylamino-2,7-difluorofluorescein diacetate (DAF-FM diacetate) (Molecular Probes) were used to investigate the antioxidant and NO production inhibitory potential of the test compounds. Briefly, RAW 264.7 cells were cultured in black 96 well plates (200 000 cells/mL, 100 µl/well) for 24 h followed by the incubation with the individual test compounds or the reference drugs at different concentrations (12.5, 25, 50, and 100 µM) for 2 h at 37 °C. LPS was then added at a final concentration of 1 µg/mL for an additional 18 h. The cell culture supernatant was collected from cells treated with the different compounds at 25 µM to measure TNF-α and IL-6 levels (1:10 dilution) using DuoSet ELISA kits (R&D Systems, Minneapolis, MN) following the manufacturer’s instructions. Then, the plates were washed to perform ROS and NO detection assays as detailed in our previous studies[16]^,[27].

[4] = system: LPS-induced ROS production in RAW 264.7 cells; assay: ROS production in LPS-activated RAW 264.7 macrophage cells (DCFH-DA); format: cell-based; details: Mus musculus, RAW264.7; LPS-activated RAW 264.7 cells; mean ± SEM, three replicates
Experimental: as §1

[5] = system: LPS-induced IL-6 production in RAW 264.7 cells; assay: IL-6 production in LPS-activated RAW 264.7 cells (ELISA); format: cell-based; details: LPS-activated RAW 264.7 cells treated with 25 µM of the compound
[6] = system: LPS-induced TNF-α production in RAW 264.7 cells; assay: TNF-α production in LPS-activated RAW 264.7 cells (ELISA); format: cell-based; details: LPS-activated RAW 264.7 cells treated with 25 µM of the compound
[7] = molecular target: T3, soybean 15-LOX (Glycine max, UniProt P08170); assay: 15-LOX inhibitor screening assay (Cayman); format: biochemical; details: mean ± SEM, n = 3 replicates
T3 sequence (P08170 1-839): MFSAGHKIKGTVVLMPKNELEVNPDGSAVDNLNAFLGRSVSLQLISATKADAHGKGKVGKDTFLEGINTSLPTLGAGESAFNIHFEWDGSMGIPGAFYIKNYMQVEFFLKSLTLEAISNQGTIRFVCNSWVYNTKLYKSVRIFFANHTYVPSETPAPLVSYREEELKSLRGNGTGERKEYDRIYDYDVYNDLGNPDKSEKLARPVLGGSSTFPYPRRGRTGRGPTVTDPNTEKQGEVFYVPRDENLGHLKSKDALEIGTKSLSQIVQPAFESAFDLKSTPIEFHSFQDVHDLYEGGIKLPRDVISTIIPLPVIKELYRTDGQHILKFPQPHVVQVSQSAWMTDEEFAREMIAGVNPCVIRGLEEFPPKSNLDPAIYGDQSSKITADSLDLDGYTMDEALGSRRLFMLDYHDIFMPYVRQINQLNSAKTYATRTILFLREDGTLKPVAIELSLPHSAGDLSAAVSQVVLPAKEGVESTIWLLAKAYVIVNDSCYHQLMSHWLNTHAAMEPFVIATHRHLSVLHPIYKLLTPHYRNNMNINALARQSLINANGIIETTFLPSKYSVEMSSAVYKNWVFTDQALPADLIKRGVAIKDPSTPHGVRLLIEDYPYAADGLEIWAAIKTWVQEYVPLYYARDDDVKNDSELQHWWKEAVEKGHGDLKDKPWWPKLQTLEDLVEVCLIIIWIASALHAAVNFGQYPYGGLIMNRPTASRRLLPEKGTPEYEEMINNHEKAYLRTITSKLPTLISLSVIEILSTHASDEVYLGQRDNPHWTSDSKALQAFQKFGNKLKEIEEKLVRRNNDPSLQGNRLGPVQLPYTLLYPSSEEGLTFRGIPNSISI

SMILES | IC50 [1] [µM] | IC50 [2] [µM] | IC50 [3] [µM] | IC50 [4] [µM] | IL-6 concentration [5] [pg/mL] | TNF-α concentration [6] [pg/mL] | Selectivity (SI) [1] | IC50 [7] [µM]
CC1N(NC(=O)Nc2ccccc2)C(=O)c2ccccc2N1C (centres unmarked) [Compound 6b, 1-(1,2-Dimethyl-4-oxo-1,4-dihydroquinazolin-3(2H)-yl)-3-phenylurea] | > 100 | > 100 | 1.57 ± 1.29 | 55.5 ± 1 | 512.1 ± 46.13 |  |  | 
COc1ccc(C2N(NC(=O)Nc3ccccc3)C(=O)c3ccccc3N2C)cc1 (centres unmarked) [Compound 6f, 1-(2-(4-Methoxyphenyl)-1-methyl-4-oxo-1,4-dihydroquinazolin-3(2H)-yl)-3-phenylurea] | > 100 | > 100 | 4.05 ± 0.35 | 63.6 ± 1.3 | 207.3 ± 4.51 | 1239.00 ± 20.50 |  | 
COc1ccc(NC(=O)NN2C(=O)c3ccccc3N(C)C2c2ccccc2)cc1 (centres unmarked) [Compound 6h, 1-(4-Methoxyphenyl)-3-(1-methyl-4-oxo-2-phenyl-1,4-dihydroquinazolin-3(2H)-yl)urea] | 23.7 ± 3.54 | > 100 | 2.73 ± 0.32 | 41.2 ± 1 | 328.9 ± 1.31 |  | >4.2 | 
CN1CN(NC(=O)Nc2ccc(F)cc2)C(=O)c2ccccc21 [Compound 6k, 1-(4-Fluorophenyl)-3-(1-methyl-4-oxo-1,4-dihydroquinazolin-3(2H)-yl)urea] | > 100 | > 100 | 3.1 ± 0.86 | 5.04 ± 1.43 |  | 2024.00 ± 26.30 |  | 
COc1ccc2c(c1)c(CC(=O)O)c(C)n2C(=O)c1ccc(Cl)cc1 [Indomethacin, indomethacin, reference compound] |  |  | 46.5 ± 1.07 | 79.4 ± 1.14 |  |  |  | 
Cc1ccc(-c2cc(C(F)(F)F)nn2-c2ccc(S(N)(=O)=O)cc2)cc1 [Celecoxib, celecoxib, reference compound] |  |  | 14.39 ± 0.08 | 7.57 ± 1.32 | 176.4 ± 70.48 | 383.3 ± 27.8 |  | 
COc1ccc(NC(=O)NN2C(=O)c3ccccc3N(C)C2c2ccc([N+](=O)[O-])cc2)cc1 (centres unmarked) [Compound 6i, 1-(4-Methoxyphenyl)-3-(1-methyl-2-(4-nitrophenyl)-4-oxo-1,4-dihydroquinazolin-3(2H)-yl)urea] | 51.5 ± 4.58 | > 100 | 7.89 ± 1.02 | 5.9 ± 1.84 |  | 1821.00 ± 10.40 | >1.9 | 
COc1ccc(NC(=O)NN2CN(C)c3ccccc3C2=O)cc1 [Compound 6g, 1-(4-Methoxyphenyl)-3-(1-methyl-4-oxo-1,4-dihydroquinazolin-3(2H)-yl)urea] | 8.14 ± 1.07 | > 100 | 1.24 ± 0.56 | > 100 | 363.2 ± 12.62 | 1292.00 ± 16.72 | >12.3 | 1.61 ± 0.23
O=C(O)Cc1ccccc1Nc1c(Cl)cccc1Cl [Diclofenac, diclofenac sodium, reference compound] |  |  | 24.08 ± 0.15 | 43.8 ± 1.04 |  |  |  | 
